In the supplement of paper PMC3334620:
Whole data set: some 33,000 sequences, median “E-score (-0.5 to 0.5)” near -0.043, cut for the highest 2% near 0.37. Some of the results follow.

biological target: T1, Upc2 (UniProt Q12151); experiment: PBM E-score (8-mer binding enrichment) (E-score (-0.5 to 0.5)); higher = stronger / more preferred TF binding; most listed sequences are background and not binding sites; conditions: protein concentration: 200 nM; construct: GST-full length
T1 sequence: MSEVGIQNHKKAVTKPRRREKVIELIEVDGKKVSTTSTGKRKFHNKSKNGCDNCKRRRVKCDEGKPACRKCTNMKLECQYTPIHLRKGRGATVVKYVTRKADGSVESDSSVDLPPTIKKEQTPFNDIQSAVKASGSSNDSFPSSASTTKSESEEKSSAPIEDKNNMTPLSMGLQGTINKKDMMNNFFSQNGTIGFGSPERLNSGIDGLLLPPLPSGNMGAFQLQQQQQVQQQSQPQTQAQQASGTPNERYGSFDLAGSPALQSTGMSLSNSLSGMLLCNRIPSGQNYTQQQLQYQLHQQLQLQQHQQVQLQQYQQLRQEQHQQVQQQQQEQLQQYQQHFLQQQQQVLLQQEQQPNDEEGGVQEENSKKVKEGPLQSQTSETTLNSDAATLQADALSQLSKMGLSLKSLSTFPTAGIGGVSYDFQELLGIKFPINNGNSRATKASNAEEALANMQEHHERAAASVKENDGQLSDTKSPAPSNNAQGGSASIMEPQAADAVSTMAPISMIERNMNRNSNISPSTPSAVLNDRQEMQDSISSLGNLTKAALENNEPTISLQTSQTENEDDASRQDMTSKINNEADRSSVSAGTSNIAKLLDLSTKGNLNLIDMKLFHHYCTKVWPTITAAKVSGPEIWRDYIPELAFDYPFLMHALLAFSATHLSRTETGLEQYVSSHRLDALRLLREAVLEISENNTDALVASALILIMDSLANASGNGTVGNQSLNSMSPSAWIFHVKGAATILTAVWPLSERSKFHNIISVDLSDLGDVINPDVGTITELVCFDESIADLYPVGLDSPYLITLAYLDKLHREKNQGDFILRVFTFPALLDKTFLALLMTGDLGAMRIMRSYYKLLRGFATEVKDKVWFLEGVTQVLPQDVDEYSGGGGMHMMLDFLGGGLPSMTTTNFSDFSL
In short: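 Using PURExpress in vitro transcription/translation, GST-tagged yeast transcription factors were made in full-length or DNA-binding-domain form. These were applied at about 100-200 nM to double-stranded universal all-10-mer Agilent arrays, and bound protein was detected with fluorescent anti-GST. Scans were normalised with masliner before the Universal PBM Analysis Suite assigned E-scores to ungapped eight-base words pooled with their reverse complements.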

Sequence | PBM E-score
ACGCATCG | 0.267
TCCCACGA | -0.152
CCGGACTA | -0.327
GCTAGGTA | -0.057
AGGGTAAG | -0.116
TAAACGCA | 0.399
AGATGAAT | -0.206
CACACGAC | 0.261
AAGTTGTG | -0.0439
ATTACACG | 0.16
AACAAATA | 0.188
AAAAACGT | 0.0237
AGGCTTAC | -0.0341
CGGCATAC | 0.182
GAAATCAC | 0.0355
AAAATTCT | 0.0514
CTGTTCCC | -0.246
CGGGGATC | -0.0274
AGTCGCCG | 0.154
AAGTTGTC | -0.112
CAGCTCGA | -0.209
AGAAACGG | 0.217
GCTGATTA | 0.0887
GACGCGTA | 0.274
GGTAACAA | 0.0632

Sequence | PBM E-score
CATACTAC | -0.26
AGTACACG | 0.198
GATAGATC | 0.0671
CCAGTTGA | -0.135
GAGAAAGC | 0.0515
ACTCCTGA | -0.202
AACCACGT | 0.116
TACCTGCA | -0.0203
CACTCGGA | 0.119
ACCCCGCT | 0.00551
GGATGCTA | -0.0482
ATGTCCCA | -0.178
ATTCCAAG | -0.158
AATCATAA | -0.0124
TAAGTGCA | 0.112
ATGTGGTC | -0.0101
CCGCTACC | 0.153
AGACACTA | 0.0521
ACCCAAAT | -0.0268
GATAGGGA | -0.252
AAGTCTAA | -0.145
CAATTTAG | -0.126
CGGGTCGC | 0.165
TAGGTAAA | 0.00379
TGTAGAAA | -0.108

Sequence | PBM E-score
TCTCATAA | -0.104
ATGCTCAC | -0.0484
CCTTCGCC | -0.279
ATTCGCGG | -0.0484
ACATCTCC | -0.12
AACCTGGA | -0.221
CCCCTCAG | -0.161
CATACAAC | -0.0696
CCGGATTC | -0.113
CTCCTACA | -0.186
AACCACTT | 0.121
AGCTTCCC | 0.0109
TGCTACAA | -0.173
TACGCCCA | 0.127
CGGTATAG | 0.225
CATCCTTC | -0.197
CTTAATGC | 0.112
AAACAATT | -0.15
AAACGGTG | 0.386
CTAATTAA | -0.0543
AACAATAT | 0.137
CACCGGAG | -0.279
AGGGGAGC | -0.16
ACAAACCC | -0.0784
GGACGGCC | -0.127

Sequence | PBM E-score
CTATTCGA | 0.247
CTTGCCGC | -0.115
CAAAGTCA | -0.0235
AGATGCAC | -0.0352
GAATTCAA | 0.0122
CCGAGGTA | 0.125
GGCATCCA | -0.101
GGTTAGCA | -0.298
AAAAATGC | 0.0191
GAAGCTTC | -0.235
AATCTTCA | -0.0321
CGACCCAC | 0.0439
AGGAAGCC | -0.263
AAGCATTG | -0.00979
GAACGGAC | 0.201
AGGAGATC | -0.153
AGCCTTAA | -0.0139
AAGGGTAC | 0.137
AACAAGTG | -0.191
GTGGAGCA | -0.146
AAGTATTG | -0.137
GGAGCCGA | -0.151
CCCAGTTC | -0.161
TATTTGCA | 0.0347
TGTCCACA | -0.209

Sequence | PBM E-score
ACACTGAT | -0.118
GTGTTTGA | 0.159
GCTCCGAA | -0.0241
AGTATTCC | -0.0174
CAGCACTA | -0.154
GAGTAGTA | 0.0241
CCAGTACC | 0.0225
CCTACCCG | -0.0821
CACATAGC | -0.285
AGCCGGGG | -0.223
CGATCGAA | 0.24
ATGGCGCA | 0.0218
AATCCGCG | 0.0293
ACTATTTA | 0.0589
CTACTTAC | 0.0612
CATCTGAC | -0.272
AATTCTGT | -0.165
GCCGAACC | -0.0772
AACAATTA | 0.066
GGTGGGAC | -0.158
AACTATCC | 0.0104
AGCTATGC | 0.0343
CAATGGCA | -0.196
CGTTACAC | 0.118
ATTACACC | 0.0316

Sequence | PBM E-score
CTACGCAC | -0.0589
GGTGTCCA | -0.0671
ACTGAAAG | -0.105
CCCTTGGA | 0.0336
CCAGCGTA | 0.238
GCGTTTCA | -0.0903
AATGAGAC | -0.13
TCAACCAA | -0.188
ACCTTGAT | 0.00092
TGATGTAA | -0.0191
GTGGTTCA | -0.0569
TAACCGGA | 0.0204
CACTACAC | -0.0177
CGTTTGGA | 0.428
CTTTGGCC | 0.0171
CGGGCATA | 0.0778
AAGCTGCG | -0.0191
AATCAGTA | 0.0172
GCGATGTA | 0.106
AGTACCAG | -0.134
AGTCTGTG | -0.193
ACCTCTGC | -0.21
GGACGTGA | -0.187
AATGCTTC | 0.0794
GAGTAAAC | 0.279

Sequence | PBM E-score
ATTACGTA | 0.309
GTTAGAAC | 0.179
AGCTCGGG | -0.0138
ACCTACTA | 0.00208
TTACCGAA | 0.255
TGATATCA | -0.175
ATTATGCG | 0.316
ATAGGATC | -0.123
ACTGTGAG | 0.0165
CTATCACA | -0.106
GCTTACCA | 0.13
CAAACCTA | -0.0994
AGCATTCC | 0.0981
CTTTTTTA | -0.048
CAACATAG | -0.192
CTCAAATC | -0.0128
AACCAAAG | -0.0416
CCACGGCC | -0.192
CCGGGGTA | -0.0822
CCAGGGGG | -0.322
AATGTGGG | -0.142
ACTGGCCC | -0.0319
